# Source: PubChem BioAssay (NCATS)
# Where “and” joins values, the source holds several entries; their conditions need not be identical. Equal entries are not always repeated. Inconclusive means that the source gave no clear call. Such entries were picked first, then a sample of the others. For some assays here: Potencies beside an inconclusive call are fits to weak or partial responses and may not hold up. For some assays here: “Side channel” marks fits to a control or component signal instead of the main read-out. More than one record can exist for a structure, and the calls need not agree. Calls of active or inactive are those of the source. Unless noted, the call rests on the fitted dose curve; in most records, active means well fitted curve in the direction sought with a large enough effect; inconclusive means small, poorly fitted or top-dose-only effect, or another doubt; inactive means no such curve, though single readings can be large; an effect the other way counts as inactive or inconclusive.
# How the values were obtained:
# [1] = Validation of Assay for Modulators of Lamin A Splicing (AID 1459; active means well fitted curve in the direction sought with a large enough effect in the signal ratio; inconclusive means small, poorly fitted or top-dose-only effect, or effect the other way, or a change in a side signal; inactive means no such curve, though single readings can be large or run the other way; the % refers to the signal ratio; further: potency means the concentration at half of the fitted maximal effect;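 on ratio change, both ways: cells exposed to compound for two days before reading; 0% is about no effect; ratio rise marks activators and ratio drop marks inhibitors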); details: Lamin A splicing dual RFP/GFP fluorescence reporter; Potency: ratio unless noted; ratio change, both ways: at 9.22 µM unless noted
# In short: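 S3 HeLa stably expressing lamin A-EGFP splicing minigene and DsRed2, 600 cells/well in Opti-MEM with 2% FBS, treated 48 h at 37C; laser-scanning cytometry gives GFP/RFP total intensity ratio; ancitabine positive control, 0.5% DMSO vehicle.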
# [2] = High Content Imaging Cell-Based qHTS for Inhibitors of the mTORC1 Signaling Pathway in MEF Cells (AID 2667); further: potency means the concentration at half of the fitted maximal effect;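 on activity change, negative = inhibition: Tsc2-/- p53-/- MEFs stably re-expressing wild-type Tsc2 exposed 24 h; plate controls were DMSO wells for no effect and rapamycin control wells for full effect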
# In short: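 Fixed-cell imaging of phospho-S6 (Ser235/236, Alexa-488) after 24 hrs of compound treatment at 37 degree Celsius. Signal was normalized to Hoechst, and thresholds from the highest and lowest wells split cells into % active versus % non-active.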
# [3] = target: M-phase phosphoprotein 8 (Homo sapiens) (UniProt Q99549); assay: qHTS Validation Assay for Inhibitors for MPP8 Chromodomain Interactions with Methylated Histone Tails (AID 488949); details: AlphaScreen MPP8 binding to H3K9me3 peptide; activity change, negative = inhibition: at 57.1 µM (top of the series) unless noted; further: potency means the concentration at half of the fitted maximal effect; nearly all actives have a fitted effect of over 55% in size
# In short: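 MPP8 (50 nM) was pre-bound to 50 nM biotinylated H3(1-18)K9me3 peptide in PBS pH 7.4 with 0.01% Tween-20. Compounds were then added for 30 min at room temperature, and complex disruption was read by AlphaScreen with streptavidin donor and nickel-chelate acceptor beads.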
# [4] = Validation screen for small molecules that induce DNA re-replication in SW480 colon adenocarcinoma cells (AID 504364); further: potency means the concentration at half of the fitted maximal effect
# In short: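 Hoechst-stained SW480 nuclei, imaged at 405 nm excitation after 48 hr compound exposure, were counted for elevated DNA content as the re-replication signal.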
# [5] = qHTS for Activators of Parkin Expression: LOPAC Validation Assay (FLuc Reporter) (AID 720573; further: potency means the concentration at half of the fitted maximal effect;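 on activation: 0% = DMSO and 100% = positive control compounds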)
# In short: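 Neuronal cell line stably expressing FLuc/NLuc coincidence reporter under the Parkin promoter, 1,500 cells/well, dosed 24 h after seeding in 7-point series for 24 h at 37 C. FLuc luminescence read; normalized to DMSO and positive control (100%).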
# [6] = Primary qHTS for inhibitors of La Crosse Virus (LACV) - induced cell death in SH-SY5Y cells (AID 1508616); further: potency means the concentration at half of the fitted maximal effect
# In short: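 Screening measures cell viability in LACV-infected SH-SY5Y cultures. Compound was added before virus (0.01 MOI), and ATP was detected by luminescence 6 days later.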
# [7] = target: Calcium and integrin-binding protein 1 (Homo sapiens) (UniProt Q99828); assay: Validation qHTS for Identification of Calcium Integrin Binding protein 1 (CIB1) Competitor (AID 1508618); further: potency means the concentration at half of the fitted maximal effect; on activity change, negative = inhibition: on the % scale 0 is the no-effect control and ±100 the full control effect
# In short: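 CIB1-GST (1 uM final) in 5 mM HEPES pH 7.4, 125 mM NaCl, 5 mM CaCl2, 0.01% Tween20 was preincubated 15 min at room temperature with compound (up to 114 uM), then FITC-alphaIIb peptide (100 nM) added for 15 min; fluorescence polarization read.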
# [8] = target: Peptidyl-prolyl cis-trans isomerase NIMA-interacting 1 (Homo sapiens) (UniProt Q13526); assay: qHTS Validation Assay to Find Inhibitors of Pin1 (AID 504536; active means well fitted inhibition curve with a large enough effect in the polarisation, with a control signal flat, not every such curve was filed as active; inconclusive means small, poorly fitted or top-dose-only effect, or effect the other way; the % refers to the polarisation; further: potency means the concentration at half of the fitted maximal effect)
# In short: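 Fluorescence polarization competition: compounds (titration) displace HiFluor-488-labeled Pin1-1b peptide from Pin1 (0.3 uM final) in pH 7.5 HEPES buffer with DTT, 10 min at room temperature; %Activity normalized to no-enzyme wells, curves fitted.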
# [9] = target: Transient receptor potential cation channel subfamily V member 1 (Homo sapiens) (UniProt Q8NER1); assay: HTS Assay for Compounds that Act as Enhancers of the Vanilloid Receptor 1 (AID 488979); further: potency means the concentration at half of the fitted maximal effect
# In short: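 TRPV1-expressing cells loaded with Fluo-8 calcium dye; compounds added and calcium influx read kinetically for 3 min (agonist phase), then capsaicin at EC20 added and read 2 min more for enhancement. Fluorescence ex 480/em 520 nm.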
# [10] = qHTS Assay for Identification of Small Molecule Agonists for Hypoxia Response Element Signaling Pathway (AID 914; active means well fitted activation curve with a large enough effect in the signal ratio, with a control signal flat, not every such curve was filed as active; inconclusive means small, poorly fitted or top-dose-only effect, or effect the other way, or a change in a side signal; the % refers to the signal ratio; further: potency means the concentration at half of the fitted maximal effect); details: ME-180 HRE-bla reporter, beta-lactamase ratio, CoCl2, 17 h; activation: active compounds read high
# In short: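 ME-180 cells carrying an HRE-driven beta-lactamase reporter were treated with compounds in a titration series plus an EC50 level of CoCl2 for 17 h at 37 degrees Celsius; CCF4 readout as the 460nm/530nm ratio gave AC50 values.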
# [11] = qHTS Validation Assay to Find Inhibitors of Chronic Active B-Cell Receptor Signaling (AID 485345; active means well fitted curve in the direction sought with a large enough effect in the main read-out, with a control signal flat, not every such curve was filed as active; inconclusive means small, poorly fitted or top-dose-only effect, or effect the other way, or a change in a side signal; inactive means no such curve, though single readings can be large or run the other way;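 further: 0% = untreated basal cells and 100% = 10 µM MG-132 proteasome inhibitor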); details: ABC-DLBCL cells, chronic BCR signaling reporter; activity change: CBG luciferase, at 46.1 µM (top of the series)
# In short: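 TMD8 ABC-DLBCL cells with dox-inducible green luciferase–IκBα fusion and red native luciferase; compounds 46 uM–3 nM, 4 h at 37C with doxycycline in 0.5% FBS IMDM. Green/red ratio normalized to basal and 10 uM MG-132.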
# Papain (Carica papaya) = Papain (Carica papaya) (UniProt P00784); assay: Primary qHTS assay for inhibitors of the protease papain (AID 1645873);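 further: papain turnover of Z-FR-AMC read as the AMC fluorescence gain over 10 min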; further: potency means the concentration at half of the fitted maximal effect; on activity change, negative = inhibition: on the % scale 0 is the no-effect control and ±100 the full control effect
# [12] = Nrf2 qHTS screen for inhibitors: Validation (AID 493153; active means well fitted inhibition curve with a large enough effect in the main read-out, with a control signal flat, not every such curve was filed as active; inconclusive means small, poorly fitted or top-dose-only effect, or effect the other way, or a change in a side signal; inactive means no such curve, though single readings can be large or run the other way; further: potency means the concentration at half of the fitted maximal effect;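 on activity change, negative = inhibition: A549 cells with ARE-driven firefly luciferase reporter reporting Nrf2 activity; % of control where 0% means no effect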)
# In short: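 In this counterscreened reporter format, each well gives two signals: CellTiter-Fluor fluorescence for cytotoxicity and ARE-luciferase luminescence for Nrf2 function. A549 ARE_Fluc cells in 5% FBS OPTI-MEM were exposed to compound titrations for 18-24 h.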
# [13] = qHTS Assay for Modulators of Human Peripheral Myelin Protein 22 (PMP22) Expression/Activity (AID 1967; active means well fitted curve in the direction sought with a large enough effect in the signal ratio; inconclusive means small, poorly fitted or top-dose-only effect, or effect the other way, or a change in a side signal; inactive means no such curve, though single readings can be large or run the other way; the % refers to the signal ratio;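 further: 0% = untreated cells and 100% end not stated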); details: Cell-based PMP22 reporter, dual-color luciferase ratio, mouse Pmp22 promoter in mouse Schwann cells; activity change (ratio): at 115 µM (top of the series), 0% = compound-free control cells
# In short: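 Mouse MSC80 Schwann cells carrying Pmp22 promoter–green click beetle luciferase plus EF-alpha–red luciferase control, dosed 24 h at 37 °C. Dual-filter luminescence, overlap-corrected; %Activity from green/red ratio normalised to untreated cells, concentration-response curves fitted.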
# [14] = target: Thioredoxin reductase 1, cytoplasmic (Rattus norvegicus) (UniProt O89049); assay: qHTS Assay for Inhibitors of Mammalian Selenoprotein Thioredoxin Reductase 1 (TrxR1) (AID 488773); details: Potency: inhibition; further: potency means the concentration at half of the fitted maximal effect; nearly all actives have a fitted effect of over 40% in size
# In short: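 Inhibition is scored from the loss of NADPH fluorescence between first and last reads of an 8-min kinetic run. Selenite (400 uM) was the substrate, added after 15 min compound preincubation at room temperature.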
# [15] = qHTS for Activators of Parkin Expression: LOPAC Validation Assay (NLuc Reporter) (AID 720572; further: potency means the concentration at half of the fitted maximal effect)
# In short: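 Cells harboring the Parkin-promoter coincidence reporter were treated for 24 h at seven concentrations. NLuc output was measured sequentially after the FLuc channel and scaled between DMSO and positive control values.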
# [16] = target: Thioredoxin reductase 1, cytoplasmic (Rattus norvegicus) (UniProt O89049); assay: qHTS Assay for Substrates of Mammalian Selenoprotein Thioredoxin Reductase 1 (TrxR1) (AID 488772);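 further: potency means the concentration at half of the fitted maximal effect; a drop in NADPH fluorescence below the no-compound background marks a TrxR1 substrate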
# In short: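 In this dual-purpose format, potential substrates are identified from the first fluorescence read after selenite addition, not from the 8-minute delta. Rat enzyme is preincubated with NADPH and then with compound at ~22 deg C.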
# [17] = qHTS to identify inhibitors of the type 1 interferon - major histocompatibility complex class I in skeletal muscle: primary screen against the NCATS LOPAC collection (AID 1347405); details: iHSKM muscle cells, IFN-b-induced MHC-I HiBiT luminescence, 24 h; activity change, negative = inhibition: at 45.9 µM (top of the series);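 further: human myoblasts with HiBiT tag on endogenous HLA-B stimulated by IFN-beta; lytic HiBiT luminescence reporting HLA-B protein level; on the % scale 0 is the no-effect control and ±100 the full control effect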
# In short: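 IFN-beta-stimulated (4 ng/ml) HLA-B HiBiT knock-in myoblasts, compound-treated 24 hrs up to 46 uM final; signal via LgBiT complementation and furimazine luminescence.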
# [18] = target: D(1A) dopamine receptor (Homo sapiens) (UniProt P21728); assay: HTS Assay for Allosteric Agonists of the Human D1 Dopamine Receptor: Primary Screen for Potentiators (AID 488982); further: potency means the concentration at half of the fitted maximal effect
# In short: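 Tetracycline-induced HEK293 T-REx cells force-coupled to calcium signalling were incubated overnight at 30 C and dye-loaded at room temperature. Calcium flux over 180 s after compound addition flagged agonists; a further 180 s read after EC20 dopamine flagged potentiators.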
# Tags describe the fitted curve by direction and shape or compound fluorescence and quenching.
# Sequence of UniProt Q99549 (Q99549 whole entry, looked up): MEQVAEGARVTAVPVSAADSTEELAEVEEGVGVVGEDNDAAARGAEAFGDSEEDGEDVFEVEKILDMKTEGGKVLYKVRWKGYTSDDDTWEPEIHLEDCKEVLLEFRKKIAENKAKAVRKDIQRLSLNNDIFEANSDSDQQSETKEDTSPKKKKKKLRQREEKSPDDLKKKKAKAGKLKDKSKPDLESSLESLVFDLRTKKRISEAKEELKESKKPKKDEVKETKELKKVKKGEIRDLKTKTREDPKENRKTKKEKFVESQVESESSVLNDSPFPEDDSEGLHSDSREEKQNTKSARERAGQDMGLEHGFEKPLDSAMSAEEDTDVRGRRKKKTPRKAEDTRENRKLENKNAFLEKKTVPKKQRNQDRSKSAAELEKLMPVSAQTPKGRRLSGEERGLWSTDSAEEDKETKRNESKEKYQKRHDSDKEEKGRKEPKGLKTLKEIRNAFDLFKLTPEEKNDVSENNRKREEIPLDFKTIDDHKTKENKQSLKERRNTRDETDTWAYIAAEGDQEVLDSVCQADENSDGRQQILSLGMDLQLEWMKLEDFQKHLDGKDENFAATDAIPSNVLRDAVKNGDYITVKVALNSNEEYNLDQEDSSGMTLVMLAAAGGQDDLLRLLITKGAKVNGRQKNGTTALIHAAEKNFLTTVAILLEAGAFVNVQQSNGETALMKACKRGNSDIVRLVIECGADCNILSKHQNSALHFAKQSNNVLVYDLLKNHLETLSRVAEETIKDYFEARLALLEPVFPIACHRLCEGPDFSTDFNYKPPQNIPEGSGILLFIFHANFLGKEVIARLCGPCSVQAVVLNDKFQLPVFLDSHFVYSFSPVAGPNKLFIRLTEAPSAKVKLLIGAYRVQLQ
# Sequence of UniProt O89049 (O89049 whole entry, looked up): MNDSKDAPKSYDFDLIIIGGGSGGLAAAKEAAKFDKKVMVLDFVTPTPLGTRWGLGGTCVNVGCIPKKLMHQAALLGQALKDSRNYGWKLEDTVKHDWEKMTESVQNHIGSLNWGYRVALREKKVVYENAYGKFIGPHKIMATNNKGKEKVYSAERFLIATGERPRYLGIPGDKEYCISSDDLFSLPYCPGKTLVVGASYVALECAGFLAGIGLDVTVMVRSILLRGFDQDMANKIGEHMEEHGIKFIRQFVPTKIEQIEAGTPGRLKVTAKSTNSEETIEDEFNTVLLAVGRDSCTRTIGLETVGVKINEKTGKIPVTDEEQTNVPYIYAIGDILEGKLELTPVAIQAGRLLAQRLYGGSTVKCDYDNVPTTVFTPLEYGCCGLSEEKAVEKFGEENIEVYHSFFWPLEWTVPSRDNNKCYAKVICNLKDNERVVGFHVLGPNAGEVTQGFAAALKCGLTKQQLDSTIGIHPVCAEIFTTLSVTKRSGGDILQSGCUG
# Sequence of UniProt Q13526 (Q13526 whole entry, looked up): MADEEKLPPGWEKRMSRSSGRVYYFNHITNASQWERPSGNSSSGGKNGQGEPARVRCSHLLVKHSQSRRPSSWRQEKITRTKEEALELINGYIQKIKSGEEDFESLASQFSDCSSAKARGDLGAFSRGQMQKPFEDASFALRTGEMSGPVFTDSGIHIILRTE
# Sequence of UniProt Q8NER1 (Q8NER1 whole entry, looked up): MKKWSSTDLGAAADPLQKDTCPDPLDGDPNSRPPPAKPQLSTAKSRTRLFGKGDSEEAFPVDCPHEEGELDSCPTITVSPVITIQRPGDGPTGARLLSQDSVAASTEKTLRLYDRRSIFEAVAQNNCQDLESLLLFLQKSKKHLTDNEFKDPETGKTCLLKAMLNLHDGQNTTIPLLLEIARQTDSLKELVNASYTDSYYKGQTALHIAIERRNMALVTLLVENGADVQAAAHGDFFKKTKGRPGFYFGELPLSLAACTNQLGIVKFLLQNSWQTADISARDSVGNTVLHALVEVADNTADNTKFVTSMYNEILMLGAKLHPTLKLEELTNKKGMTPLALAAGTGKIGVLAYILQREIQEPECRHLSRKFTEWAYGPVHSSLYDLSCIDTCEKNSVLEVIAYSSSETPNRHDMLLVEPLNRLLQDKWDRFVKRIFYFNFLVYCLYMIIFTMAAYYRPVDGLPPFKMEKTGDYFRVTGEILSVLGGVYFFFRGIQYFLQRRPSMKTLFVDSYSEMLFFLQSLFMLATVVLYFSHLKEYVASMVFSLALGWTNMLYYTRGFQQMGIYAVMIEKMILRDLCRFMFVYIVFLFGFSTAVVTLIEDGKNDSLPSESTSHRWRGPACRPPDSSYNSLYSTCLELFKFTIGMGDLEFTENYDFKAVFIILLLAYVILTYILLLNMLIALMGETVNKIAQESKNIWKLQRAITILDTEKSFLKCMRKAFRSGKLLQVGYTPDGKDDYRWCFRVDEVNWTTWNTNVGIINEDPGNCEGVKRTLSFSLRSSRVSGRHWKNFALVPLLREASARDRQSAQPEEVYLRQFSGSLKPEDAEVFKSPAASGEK
# Sequence of UniProt Q99828 (Q99828 whole entry, looked up): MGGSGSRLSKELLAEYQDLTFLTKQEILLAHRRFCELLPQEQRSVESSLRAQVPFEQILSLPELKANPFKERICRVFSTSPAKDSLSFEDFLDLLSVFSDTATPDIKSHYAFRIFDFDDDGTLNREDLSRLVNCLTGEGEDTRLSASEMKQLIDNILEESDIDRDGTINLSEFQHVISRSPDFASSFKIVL
# Sequence of UniProt P21728 (P21728 whole entry, looked up): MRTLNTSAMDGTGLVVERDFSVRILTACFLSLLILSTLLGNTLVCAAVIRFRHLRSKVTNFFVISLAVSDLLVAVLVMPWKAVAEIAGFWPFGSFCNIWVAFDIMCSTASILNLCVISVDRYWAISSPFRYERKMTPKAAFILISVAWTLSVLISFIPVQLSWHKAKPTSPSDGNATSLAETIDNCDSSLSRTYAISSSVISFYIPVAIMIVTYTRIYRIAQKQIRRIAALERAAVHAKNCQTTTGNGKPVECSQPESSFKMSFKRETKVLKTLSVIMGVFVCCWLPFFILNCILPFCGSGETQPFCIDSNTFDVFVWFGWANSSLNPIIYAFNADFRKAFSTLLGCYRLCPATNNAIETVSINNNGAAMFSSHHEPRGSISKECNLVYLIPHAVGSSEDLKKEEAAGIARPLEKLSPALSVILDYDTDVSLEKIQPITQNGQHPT
# Sequence of UniProt P00784 (P00784 whole entry, looked up): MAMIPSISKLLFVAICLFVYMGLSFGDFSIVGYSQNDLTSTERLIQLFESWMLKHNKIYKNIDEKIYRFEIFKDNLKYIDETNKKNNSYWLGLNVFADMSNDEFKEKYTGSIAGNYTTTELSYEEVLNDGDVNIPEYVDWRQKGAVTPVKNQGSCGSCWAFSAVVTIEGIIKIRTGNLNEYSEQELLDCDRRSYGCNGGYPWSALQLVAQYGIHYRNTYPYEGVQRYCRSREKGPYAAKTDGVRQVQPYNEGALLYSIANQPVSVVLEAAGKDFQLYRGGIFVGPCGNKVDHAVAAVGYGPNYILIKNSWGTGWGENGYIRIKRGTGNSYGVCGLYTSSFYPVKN
smiles,measurement,setting,value
O=C(/C=C/c1ccc(O)c(O)c1)OCCc1ccccc1,Potency,[1],"inconclusive: 5.62 µM [activator, single point]"
same,Potency,[2],"inconclusive: 0.656 µM [falling, full curve, poor fit]"
same,Potency,[3],"inconclusive: 39.8 µM [inhibitor, partial curve] and inconclusive: 37.7 µM [inhibitor, single point]"
same,Potency,[4],"inconclusive: 18.4 µM [activator, single point]"
same,Potency,[5],"inconclusive: 29.1 µM [activator, single point]"
same,Potency,[6],active: 0.631 µM
Nc1nc(Nc2ccccc2)nc2c1ncn2[C@@H]1O[C@H](CO)[C@@H](O)[C@H]1O,Potency,[7],inactive
N#C/C(=C\c1ccc(O)c(O)c1)C(=O)NCCCc1ccccc1,Potency,[2],"inconclusive: 18.5 µM [falling, single point]"
same,Potency,[4],"inconclusive: 18.4 µM [activator, single point]"
same,Potency,[8],"inconclusive: 12 µM [quencher, side channel, partial curve]"
same,Potency,[6],"inconclusive: 2.51 µM [inhibitor, partial curve, poor fit]"
CC(C)NCC(O)COc1cccc2ccccc12 (stereo unspecified),Potency,[9],"inconclusive: 15.8 µM [activator, single point]"
Clc1ccc(N2CCN(Cc3c[nH]c4ncccc34)CC2)cc1,Potency,[10],"inconclusive: 12.6 µM [inhibitor, partial curve, poor fit]"
same,activity change,[11],inconclusive: -36.5%
same,Potency,Papain (Carica papaya),inactive
CCCCCCCCCCCCCCCC(=O)OC(CC(=O)O)C[N+](C)(C)C (stereo unspecified),Potency,[9],"inconclusive: 12.6 µM [activator, single point]"
same,Potency,[4],"inconclusive: 18.4 µM [activator, single point]"
same,Potency,[8],inactive
CCCCCCCCCCCCCCCCCCNC(=O)OCC(COP(=O)([O-])OCC[n+]1ccsc1)OC (stereo unspecified),Potency,[2],inactive
same,Potency,[4],"inconclusive: 32.6 µM [activator, partial curve, poor fit]"
Cc1cc(NC2CCCCC2)nc(-n2nc(C)cc2C)n1,Potency,[12],inactive
Oc1cc2c(cc1O)CN(C(=S)NCCc1ccc(Cl)cc1)CCC2,Potency,[10],"inconclusive: 5.01 µM [inhibitor, partial curve]"
same,activity change (ratio),[13],inconclusive: -1.28%
same,Potency,[14],"inconclusive: 3.36 µM [inhibitor, partial curve]"
same,Potency,[3],active: 39.8 µM
same,Potency,[4],"inconclusive: 9.2 µM [activator, partial curve]"
same,Potency,[15],"inconclusive: 20.6 µM [activator, single point]"
same,Potency,[6],active: 2.24 µM
NC(N)=NC(=O)c1nc(Cl)c(N2CCCCCC2)nc1N,Potency,[16],"inconclusive: 59.7 µM [inhibitor, partial curve, poor fit]"
same,Potency,[9],"inconclusive: 14.1 µM [activator, single point]"
same,Potency,[4],"inconclusive: 20.6 µM [activator, single point]"
same,Potency,[15],"inconclusive: 14.6 µM [activator, partial curve]"
same,Potency,[17],inactive
CC(C)NC[C@H](O)COc1cccc2[nH]ccc12,Potency,[11],inactive
COc1ccc2c(c1)c(CC(=O)O)c(C)n2Cc1ccc(Cl)cc1,Potency,[10],"inconclusive: 12.6 µM [inhibitor, partial curve]"
same,Potency,[1],"inconclusive: 15.8 µM [activator, partial curve]"
same,Potency,[2],inactive
same,Potency,[18],inactive
same,Potency,[12],"inconclusive: 920 nM [inhibitor, full curve, poor fit]"
same,Potency,[15],"inconclusive: 23.1 µM [activator, single point]"
same,Potency,[7],"inconclusive: 39.8 µM [inhibitor, partial curve]"
CCCCCCCCc1ccc(-c2ccc(C(=O)O)cc2)cc1,activity change,[11],inconclusive: -22.3%
same,Potency,[12],"inconclusive: 51.7 nM [falling, full curve]"
same,Potency,[8],"inconclusive: 33.8 µM [falling, single point]"
same,Potency,[5],inactive
COC(=O)c1c(C)[nH]c(C)c1C(=O)c1ccccc1Cc1ccccc1,Potency,[10],"inconclusive: 2.51 µM [inhibitor, full curve]"
same,"ratio change, both ways",[1],inactive: -10.1%
same,activity change,[11],inconclusive: -72.8%
CC1CN(S(=O)(=O)c2cccc3cnccc23)CCN1 (stereo unspecified),Potency,[16],"inconclusive: 42.3 µM [inhibitor, partial curve, poor fit]"
same,Potency,[12],inactive
C[C@@H](NC(=O)/C(C#N)=C/c1ccc(O)c(O)c1)c1ccccc1,Potency,[16],"inconclusive: 33.6 µM [inhibitor, partial curve]"
same,Potency,[9],inactive
same,Potency,[18],"inconclusive: 5.8 µM [activator, single point]"
C[C@]12C=CC(=O)C=C1CC[C@@H]1C2=CC[C@]2(C)[C@@H](C(=O)CN3CCN(c4cc(N5CCCC5)nc(N5CCCC5)n4)CC3)CC[C@@H]12,Potency,Papain (Carica papaya),"inconclusive: 5.01 µM [inhibitor, full curve]"
N[C@@H](Cc1c[nH]c2ccccc12)C(=O)O,Potency,[10],"inconclusive: 12.6 µM [inhibitor, full curve, poor fit]"
same,Potency,[14],"inconclusive: 29.9 µM [inhibitor, single point]"
